Changes are numbered by the printed parent chain; changes in the protein carry UniProt numbers. Some of the results follow.
T1: RBFOX1 RRM (Homo sapiens, UniProt Q9NWB1 109-208)
T1 sequence: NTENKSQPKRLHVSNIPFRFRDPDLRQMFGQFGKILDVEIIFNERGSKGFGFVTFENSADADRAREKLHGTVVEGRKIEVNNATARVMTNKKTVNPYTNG

B1: CUAGGAG (DNA:RNA)
RNA: GGGAGACCGGAAUUCAGAUUGUCCCUAGGAGUUAAAUCCCGUCGUAGCCACCA
DNA 1: CAATCTGAATTCCGGTCTCCC
DNA 2: TGGTGGCTACGACGGGATT
B2: CUGUUGC (DNA:RNA)
RNA: B1 RNA with A27G, G28U, G29U, A30G, G31C
DNA 1: CAATCTGAATTCCGGTCTCCC
DNA 2: TGGTGGCTACGACGGGATT
B3: ACGCGGG (DNA:RNA)
RNA: B1 RNA with C25A, U26C, A27G, G28C, A30G
DNA 1: CAATCTGAATTCCGGTCTCCC
DNA 2: TGGTGGCTACGACGGGATT
B4: ACGAAUU (DNA:RNA)
RNA: GGGAGACCGGAAUUCAGAUUGUCCACGAAUUUUAAAUCCCGUCGUAGCCACCA
DNA 1: CAATCTGAATTCCGGTCTCCC
DNA 2: TGGTGGCTACGACGGGATT
B5: UUUUGAA (DNA:RNA)
RNA: B1 RNA with C25U, A27U, G28U, G31A
DNA 1: CAATCTGAATTCCGGTCTCCC
DNA 2: TGGTGGCTACGACGGGATT
B6: GCGGAUA (DNA:RNA)
RNA: B4 RNA with A25G, A28G, U31A
DNA 1: CAATCTGAATTCCGGTCTCCC
DNA 2: TGGTGGCTACGACGGGATT
B7: ACGGGUG (DNA:RNA)
RNA: B4 RNA with A28G, A29G, U31G
DNA 1: CAATCTGAATTCCGGTCTCCC
DNA 2: TGGTGGCTACGACGGGATT
B8: CCGCCAG (DNA:RNA)
RNA: B1 RNA with U26C, A27G, G28C, G29C
DNA 1: CAATCTGAATTCCGGTCTCCC
DNA 2: TGGTGGCTACGACGGGATT
B9: ACAGGCA (DNA:RNA)
RNA: B1 RNA with C25A, U26C, A30C, G31A
DNA 1: CAATCTGAATTCCGGTCTCCC
DNA 2: TGGTGGCTACGACGGGATT
B10: GUAAGAA (DNA:RNA)
RNA: B1 RNA with C25G, G28A, G31A
DNA 1: CAATCTGAATTCCGGTCTCCC
DNA 2: TGGTGGCTACGACGGGATT
B11: AGCAACG (DNA:RNA)
RNA: B4 RNA with C26G, G27C, U30C, U31G
DNA 1: CAATCTGAATTCCGGTCTCCC
DNA 2: TGGTGGCTACGACGGGATT
B12: CAUGGCU (DNA:RNA)
RNA: B1 RNA with U26A, A27U, A30C, G31U
DNA 1: CAATCTGAATTCCGGTCTCCC
DNA 2: TGGTGGCTACGACGGGATT
B13: CUUUAUC (DNA:RNA)
RNA: B4 RNA with A25C, C26U, G27U, A28U, U31C
DNA 1: CAATCTGAATTCCGGTCTCCC
DNA 2: TGGTGGCTACGACGGGATT
B14: GGGAAUA (DNA:RNA)
RNA: B4 RNA with A25G, C26G, U31A
DNA 1: CAATCTGAATTCCGGTCTCCC
DNA 2: TGGTGGCTACGACGGGATT
B15: CUAACUG (DNA:RNA)
RNA: B1 RNA with G28A, G29C, A30U
DNA 1: CAATCTGAATTCCGGTCTCCC
DNA 2: TGGTGGCTACGACGGGATT
B16: CGACCAA (DNA:RNA)
RNA: B1 RNA with U26G, G28C, G29C, G31A
DNA 1: CAATCTGAATTCCGGTCTCCC
DNA 2: TGGTGGCTACGACGGGATT
B17: CUUCACC (DNA:RNA)
RNA: B1 RNA with A27U, G28C, G29A, A30C, G31C
DNA 1: CAATCTGAATTCCGGTCTCCC
DNA 2: TGGTGGCTACGACGGGATT
B18: AUUAGCU (DNA:RNA)
RNA: B4 RNA with C26U, G27U, A29G, U30C
DNA 1: CAATCTGAATTCCGGTCTCCC
DNA 2: TGGTGGCTACGACGGGATT
B19: CUGACGC (DNA:RNA)
RNA: B4 RNA with A25C, C26U, A29C, U30G, U31C
DNA 1: CAATCTGAATTCCGGTCTCCC
DNA 2: TGGTGGCTACGACGGGATT
B20: UAACGAC (DNA:RNA)
RNA: B1 RNA with C25U, U26A, G28C, G31C
DNA 1: CAATCTGAATTCCGGTCTCCC
DNA 2: TGGTGGCTACGACGGGATT
B21: GUUAUUA (DNA:RNA)
RNA: B4 RNA with A25G, C26U, G27U, A29U, U31A
DNA 1: CAATCTGAATTCCGGTCTCCC
DNA 2: TGGTGGCTACGACGGGATT
B22: GUGCCUC (DNA:RNA)
RNA: B4 RNA with A25G, C26U, A28C, A29C, U31C
DNA 1: CAATCTGAATTCCGGTCTCCC
DNA 2: TGGTGGCTACGACGGGATT
B23: UUCUGAU (DNA:RNA)
RNA: B1 RNA with C25U, A27C, G28U, G31U
DNA 1: CAATCTGAATTCCGGTCTCCC
DNA 2: TGGTGGCTACGACGGGATT
B24: CUAAUCA (DNA:RNA)
RNA: B1 RNA with G28A, G29U, A30C, G31A
DNA 1: CAATCTGAATTCCGGTCTCCC
DNA 2: TGGTGGCTACGACGGGATT
B25: CAUGUGG (DNA:RNA)
RNA: B1 RNA with U26A, A27U, G29U, A30G
DNA 1: CAATCTGAATTCCGGTCTCCC
DNA 2: TGGTGGCTACGACGGGATT
B26: CCGACUU (DNA:RNA)
RNA: B4 RNA with A25C, A29C
DNA 1: CAATCTGAATTCCGGTCTCCC
DNA 2: TGGTGGCTACGACGGGATT
B27: GGUUUUC (DNA:RNA)
RNA: B4 RNA with A25G, C26G, G27U, A28U, A29U, U31C
DNA 1: CAATCTGAATTCCGGTCTCCC
DNA 2: TGGTGGCTACGACGGGATT
B28: GAGAUAA (DNA:RNA)
RNA: B4 RNA with A25G, C26A, A29U, U30A, U31A
DNA 1: CAATCTGAATTCCGGTCTCCC
DNA 2: TGGTGGCTACGACGGGATT
B29: CCGAUUC (DNA:RNA)
RNA: B4 RNA with A25C, A29U, U31C
DNA 1: CAATCTGAATTCCGGTCTCCC
DNA 2: TGGTGGCTACGACGGGATT
B30: CCAGGGA (DNA:RNA)
RNA: B1 RNA with U26C, A30G, G31A
DNA 1: CAATCTGAATTCCGGTCTCCC
DNA 2: TGGTGGCTACGACGGGATT
B31: UCUGUUG (DNA:RNA)
RNA: B4 RNA with A25U, G27U, A28G, A29U, U31G
DNA 1: CAATCTGAATTCCGGTCTCCC
DNA 2: TGGTGGCTACGACGGGATT

These binders were tested against T1, RBFOX1 RRM (assay: EMSA; HiTS-Eq, 1 nM pool, 10 min; buffer printed only for the single-RNA assays: 10 mM Tris pH 7.5, 150 mM NaCl, 3.4 mM EDTA, 0.001% NP-40, 30 C). Conditions: tags: His6 N-terminal (pET28a); label: 5' 32P.
Summary of the method: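 These values rest on relative association constants, computed from read-count changes of each RNA species versus the control reaction and normalised to the cognate motif. Reads came from free RNA recovered by 8% native PAGE after purified RbFox RRM (wild type or mutant) at increasing concentrations was equilibrated for 10 min in 50 µL with 1 nM of a 5′-radiolabelled pool with 7 randomized nucleotides and DNA-annealed flanks.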

Row | Binder | binding signal
1 | B1 | 0.00338 KA relative to UGCAUGU
2 | B2 | 0.0237 KA relative to UGCAUGU
3 | B3 | 0.013 KA relative to UGCAUGU
4 | B4 | 0.00219 KA relative to UGCAUGU
5 | B5 | 0.0181 KA relative to UGCAUGU
6 | B6 | 0.00825 KA relative to UGCAUGU
7 | B7 | 0.0185 KA relative to UGCAUGU
8 | B8 | 0.00933 KA relative to UGCAUGU
9 | B9 | 0.0123 KA relative to UGCAUGU
10 | B10 | 0.0107 KA relative to UGCAUGU
11 | B11 | 0.00887 KA relative to UGCAUGU
12 | B12 | 0.0135 KA relative to UGCAUGU
13 | B13 | 0.00336 KA relative to UGCAUGU
14 | B14 | 0.0165 KA relative to UGCAUGU
15 | B15 | 0.00774 KA relative to UGCAUGU
16 | B16 | 0.00135 KA relative to UGCAUGU

Row | Binder | binding signal
17 | B17 | 0.0029 KA relative to UGCAUGU
18 | B18 | 0.00364 KA relative to UGCAUGU
19 | B19 | 0.00839 KA relative to UGCAUGU
20 | B20 | 0.00611 KA relative to UGCAUGU
21 | B21 | 0.00524 KA relative to UGCAUGU
22 | B22 | 0.0183 KA relative to UGCAUGU
23 | B23 | 0.0162 KA relative to UGCAUGU
24 | B24 | 0.000405 KA relative to UGCAUGU
25 | B25 | 0.00494 KA relative to UGCAUGU
26 | B26 | 0.00455 KA relative to UGCAUGU
27 | B27 | 0.00906 KA relative to UGCAUGU
28 | B28 | 0.00571 KA relative to UGCAUGU
29 | B29 | 0.00484 KA relative to UGCAUGU
30 | B30 | 0.00527 KA relative to UGCAUGU
31 | B31 | 0.0254 KA relative to UGCAUGU

Source: publication PMC9911399, “Two distinct binding modes provide the RNA-binding protein RbFox with extraordinary sequence specificity”
